# Some of the results follow.
# Assays:
# Assay in all cases: glycan array binding signal (z-score within array); higher = stronger binding
# Details in all cases: glycan notation: IUPAC condensed, linker removed
# Neu5Ac(a2-8)Neu5Ac = molecular target: Neu5Ac(a2-8)Neu5Ac
# In short: (§1)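 The Consortium for Functional Glycomics database supplied 3228 glycan arrays, of which those lacking an available protein sequence were dropped. The binding signal, a within-array Z-score, was averaged across arrays of the same protein sequence and across linkers. Negative scores can be read as non-binding.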
# [1] = molecular target: Neu5Ac(a2-8)Neu5Ac(a2-3)Gal(b1-3)GalNAc(b1-4)[Neu5Ac(a2-3)]Gal(b1-4)Glc
# In short: as §1
# [2] = molecular target: Neu5Ac(a2-8)Neu5Ac(a2-3)Gal(b1-3)GalNAc(b1-4)[Neu5Ac(a2-8)Neu5Ac(a2-3)]Gal(b1-4)Glc
# In short: as §1
# [3] = molecular target: Neu5Ac(a2-8)Neu5Ac(a2-3)Gal(b1-4)Glc
# In short: as §1
# [4] = molecular target: Neu5Ac(a2-8)Neu5Ac(a2-3)Gal(b1-4)GlcNAc
# In short: as §1
# [5] = molecular target: Neu5Ac(a2-8)Neu5Ac(a2-3)[Gal(b1-3)GalNAc(b1-4)]Gal(b1-4)Glc
# In short: as §1
# [6] = molecular target: Neu5Ac(a2-8)Neu5Ac(a2-3)[GalNAc(b1-4)]Gal(b1-4)Glc
# In short: as §1
# [7] = molecular target: Neu5Ac(a2-8)Neu5Ac(a2-8)Neu5Ac
# In short: as §1
# [8] = molecular target: Neu5Ac(a2-8)Neu5Ac(a2-8)Neu5Ac(a2-3)Gal(b1-4)Glc
# In short: as §1
# [9] = molecular target: Neu5Ac(a2-8)Neu5Ac(a2-8)Neu5Ac(a2-3)[Gal(b1-3)GalNAc(b1-4)]Gal(b1-4)Glc
# In short: as §1
# [10] = molecular target: Neu5Ac(a2-8)Neu5Ac(a2-8)Neu5Ac(a2-3)[GalNAc(b1-4)]Gal(b1-4)Glc
# In short: as §1
# [11] = molecular target: Neu5Ac(a2-8)Neu5Ac(a2-8)Neu5Ac(a2-8)Neu5Ac(a2-3)[GalNAc(b1-4)]Gal(b1-4)Glc
# In short: as §1
# [12] = molecular target: Neu5Ac(a2-8)Neu5Gc(a2-3)Gal(b1-4)GlcNAc
# In short: as §1
# [13] = molecular target: Neu5Ac(b2-6)Gal(b1-4)GlcNAc
# In short: as §1
# Neu5Ac(b2-6)GalNAc = molecular target: Neu5Ac(b2-6)GalNAc
# In short: as §1
# [14] = molecular target: Neu5Ac9Ac(a2-3)Gal(b1-3)GlcNAc
# In short: as §1
# [15] = molecular target: Neu5Ac9Ac(a2-3)Gal(b1-4)GlcNAc
# In short: as §1
# [16] = molecular target: Neu5Ac9Ac(a2-6)Gal(b1-4)GlcNAc
# In short: as §1
# [17] = molecular target: Neu5Gc(a2-3)Gal(b1-3)GlcNAc
# In short: as §1
# [18] = molecular target: Neu5Gc(a2-3)Gal(b1-3)[Fuc(a1-4)]GlcNAc
# In short: as §1
# Neu5Gc(a2-3)Gal(b1-4)Glc = molecular target: Neu5Gc(a2-3)Gal(b1-4)Glc
# In short: as §1
# [19] = molecular target: Neu5Gc(a2-3)Gal(b1-4)GlcNAc
# In short: as §1
# [20] = molecular target: Neu5Gc(a2-3)Gal(b1-4)GlcNAc(b1-3)Gal(b1-4)GlcNAc(b1-2)Man(a1-3)[Neu5Gc(a2-3)Gal(b1-4)GlcNAc(b1-3)Gal(b1-4)GlcNAc(b1-2)Man(a1-6)]Man(b1-4)GlcNAc(b1-4)GlcNAc
# In short: as §1
# [21] = molecular target: Neu5Gc(a2-3)Gal(b1-4)[Fuc(a1-3)]GlcNAc
# In short: as §1
# [22] = molecular target: Neu5Gc(a2-6)Gal(b1-4)GlcNAc
# In short: as §1
# Neu5Gc(a2-6)GalNAc = molecular target: Neu5Gc(a2-6)GalNAc
# In short: as §1
# [23] = molecular target: Neu5Gc(a2-8)Neu5Ac(a2-3)Gal(b1-4)GlcNAc
# In short: as §1
# [24] = molecular target: Neu5Gc(a2-8)Neu5Gc(a2-3)Gal(b1-4)GlcNAc
# In short: as §1
# [25] = molecular target: Neu5Gc(a2-8)Neu5Gc(a2-3)Gal(b1-4)GlcNAc(b1-3)Gal(b1-4)GlcNAc
# In short: as §1
# [26] = molecular target: Neu5Gc(a2-8)Neu5Gc(a2-6)Gal(b1-4)GlcNAc
# In short: as §1
# [27] = molecular target: Neu5Gc(b2-6)Gal(b1-4)GlcNAc
# In short: as §1
binder,measurement,setting,value
LecB PA14 (Pseudomonas aeruginosa) (protein) MATQGVFTLPANTQFGVTAFANSAGTQTVNVQVNNETVATFTGQSTNNAIIGSKVLNSGGGGKVQILVSVNGRSSDLVSAQVILANELNFALVGSEDSTDNDYNDAVVVINWPLG,glycan array binding signal (z-score),Neu5Ac(a2-8)Neu5Ac,-0.161
same,glycan array binding signal (z-score),[1],-0.711
same,glycan array binding signal (z-score),[2],0.585
same,glycan array binding signal (z-score),[3],-0.441
same,glycan array binding signal (z-score),[4],-0.439
same,glycan array binding signal (z-score),[5],-0.295
same,glycan array binding signal (z-score),[6],-0.147
same,glycan array binding signal (z-score),[7],-0.259
same,glycan array binding signal (z-score),[8],-0.555
same,glycan array binding signal (z-score),[9],-0.695
same,glycan array binding signal (z-score),[10],-0.494
same,glycan array binding signal (z-score),[11],-0.549
same,glycan array binding signal (z-score),[12],-0.673
same,glycan array binding signal (z-score),[13],-0.066
same,glycan array binding signal (z-score),Neu5Ac(b2-6)GalNAc,0.388
same,glycan array binding signal (z-score),[14],-0.41
same,glycan array binding signal (z-score),[15],-0.339
same,glycan array binding signal (z-score),[16],-0.872
same,glycan array binding signal (z-score),[17],0.419
same,glycan array binding signal (z-score),[18],0.603
same,glycan array binding signal (z-score),Neu5Gc(a2-3)Gal(b1-4)Glc,-0.693
same,glycan array binding signal (z-score),[19],-0.411
same,glycan array binding signal (z-score),[20],-0.365
same,glycan array binding signal (z-score),[21],-0.557
same,glycan array binding signal (z-score),[22],-0.306
same,glycan array binding signal (z-score),Neu5Gc(a2-6)GalNAc,-0.209
same,glycan array binding signal (z-score),[23],-0.125
same,glycan array binding signal (z-score),[24],0.236
same,glycan array binding signal (z-score),[25],-0.746
same,glycan array binding signal (z-score),[26],-0.439
same,glycan array binding signal (z-score),[27],-0.805

# From the supplement of paper PMC8728848
